# Reference: the supplement of paper PMC10441789
# The list shows a part of the results. Antibody binding of pooled human sera (four to six donors per pool; dilution not stated) to peptides of the Trypanosoma cruzi antigen TSSA on microarrays. Quantile-normalised fluorescence in arbitrary units, mean of duplicate arrays; higher = more binding. No active / inactive call. The uninfected pools are read here as the healthy donors of the same country. The strongest signals lie near the top of the scale (about 60,000).
# Legend:
# Assay in all cases: antibody binding signal (normalised fluorescence) (arbitrary fluorescence units); higher = stronger serum antibody binding to peptide
# [1] = tested on: pooled sera of chronic Chagas disease patients, Argentina
# Method: (§1)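 Microarray of 15-residue peptides over residues 30-55 of Trypanosoma cruzi TSSAII, each with 1 to 10 substitutions at naturally variable positions, probed with one serum pool per country.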
# [2] = tested on: pooled sera of chronic Chagas disease patients, Bolivia
# Method: as §1
# [3] = tested on: pooled sera of chronic Chagas disease patients, Brazil
# Method: as §1
# [4] = tested on: pooled sera of chronic Chagas disease patients, Colombia
# Method: as §1
# [5] = tested on: pooled sera of chronic Chagas disease patients, Mexico
# Method: as §1
# [6] = tested on: pooled sera of chronic Chagas disease patients, USA
# Method: as §1
# [7] = tested on: pooled sera of uninfected people, Argentina
# Method: as §1
# [8] = tested on: pooled sera of uninfected people, Bolivia
# Method: as §1
# [9] = tested on: pooled sera of uninfected people, Brazil
# Method: as §1
# [10] = tested on: pooled sera of uninfected people, Colombia
# Method: as §1
# [11] = tested on: pooled sera of uninfected people, Mexico
# Method: as §1
# [12] = tested on: pooled sera of uninfected people, USA
# Method: as §1
Sequence,antibody binding signal [1],antibody binding signal [2],antibody binding signal [3],antibody binding signal [4],antibody binding signal [5],antibody binding signal [6],antibody binding signal [7],antibody binding signal [8],antibody binding signal [9],antibody binding signal [10],antibody binding signal [11],antibody binding signal [12]
PPSGTDNKTAAGEAP,17700,26800,43900,490,667,6140,395,518,793,386,163,277
KKPATGEAPSQPGAS,21500,14400,45000,166,250,40500,921,744,162,184,107,517
SGKEKKTAAGEAPSQ,5780,6280,5700,3320,7640,8840,296,174,94.4,268,178,104
ENKAAAGGAPSQPGA,428,3360,16300,3430,386,2250,305,228,198,254,281,383
TEKKTATGGAPSQSG,2620,510,1360,3500,816,1640,392,459,128,126,699,263
KENKTAAGGAPSQSG,204,525,248,2270,270,301,216,107,140,110,82.5,176
KDKKPATGETPSPPG,22400,2460,21200,131,112,18600,146,141,105,104,388,473
TENKPATGGAPSQSG,33300,20100,8300,301,1170,3910,443,1410,435,209,318,251
KDNKAAAGEAPSQSG,460,3570,17800,181,173,10900,377,1050,139,230,94.7,111
NKTAAGEAPSPSGAS,252,1580,5750,301,716,6740,483,840,714,330,234,907
TDNKAAAGGAPSQSG,290,365,600,3110,400,318,550,371,262,249,230,231
STPPSGTEKKTATGG,40000,12100,27400,5070,8310,5660,975,418,182,131,213,269
DKKPATGETPSPSGA,29000,24700,28800,141,144,22300,201,401,265,213,1480,477
PPSGKDNKTAAGETP,750,723,2050,1940,3450,3860,385,719,236,396,204,208
GTENKAATGGAPSQP,38900,2410,25100,2460,3220,4380,274,396,200,682,186,124
DKKAAAGGTPSQPGA,393,220,432,4870,357,1450,304,100,2240,189,317,157
STPPSGKDNKPAAGG,20900,5170,27500,382,26200,16600,876,890,189,221,331,447
NKPAAGGTPSQPGAS,199,296,8260,1750,216,421,690,991,1060,609,545,1490
GKDKKAATGGAPSQP,458,233,1400,651,1170,805,201,132,70.8,256,98.2,83.4
KKAAAGEAPSPPGAS,237,287,1780,268,165,8170,308,221,102,145,135,336
ENKAAAGGTPSQPGA,276,1160,1910,3990,308,2340,377,204,2040,454,946,193
KDKKAATGGAPSPPG,406,184,164,408,545,641,226,87.8,79.5,144,96.8,85.1
TEKKPAAGETPSPSG,1050,192,1470,383,439,3010,111,289,262,178,309,2320
TDNKPATGGAPSPPG,1930,16800,5600,375,403,2350,238,956,367,188,264,152
GKEKKTAAGGAPSPP,634,202,228,3260,1240,1390,118,101,108,172,96.1,106

Sequence,antibody binding signal [1],antibody binding signal [2],antibody binding signal [3],antibody binding signal [4],antibody binding signal [5],antibody binding signal [6],antibody binding signal [7],antibody binding signal [8],antibody binding signal [9],antibody binding signal [10],antibody binding signal [11],antibody binding signal [12]
DKKPATGGTPSPPGA,648,619,4130,2300,545,545,258,426,1150,269,127,125
ISTPPSGTDKKPAAG,44300,24700,46800,12800,42900,12500,1450,681,326,267,4950,809
TISTPPSGKEKKPAT,18700,221,373,270,35600,399,660,370,195,329,83.9,241
PPSGTDNKTAAGGAP,34400,28300,38900,2300,3090,3640,1010,919,1310,732,281,708
KAATGGTPSPSGASS,796,672,384,454,2240,203,297,114,219,156,101,213
KDNKTAAGEAPSQSG,910,5110,5850,1970,213,4560,462,178,170,247,111,161
STPPSGTDNKPATGG,50800,46300,50300,8600,30600,43300,1590,1340,872,430,1350,655
KENKAAAGGTPSQPG,170,198,481,988,145,1290,212,81.1,638,152,185,84.1
EKKTAAGETPSQSGA,725,733,1530,557,561,3690,163,1080,213,1090,329,1100
KKPAAGGTPSPSGAS,195,243,371,1640,185,439,278,219,653,136,80.6,283
KDNKPAAGETPSQPG,2330,1660,39600,390,188,4660,454,793,271,436,411,134
GKDNKTATGGTPSPP,1810,342,831,4030,3140,2740,191,150,128,258,92.8,120
PSGKDKKAAAGGAPS,3740,840,2970,7610,6100,5320,131,305,108,99.5,83.5,100
TDNKPAAGEAPSPSG,2160,2710,25700,326,134,16900,91.5,239,190,89.4,267,87.3
GKDNKAAAGGAPSQS,374,205,277,1140,813,593,162,367,122,141,90.9,115
SGTENKPAAGETPSQ,44000,17600,36500,526,1000,10200,665,1320,229,234,204,123
GTDNKPAAGETPSQS,2850,510,44400,1430,331,3480,133,581,446,213,424,109
TDNKTAAGEAPSQPG,6210,21100,38300,165,260,8160,132,247,316,144,114,132
GKDNKPAAGEAPSQP,7020,19900,42900,1240,1810,16600,286,894,152,227,391,102
KKAATGGAPSPPGAS,519,226,298,634,523,711,343,252,126,301,73.6,276
KEKKTAAGGAPSQSG,215,278,234,2970,338,410,115,103,108,151,71.4,161
SGKDKKAAAGGTPSP,409,187,224,2940,794,1740,116,79.2,459,170,77.2,113
KEKKPAAGGAPSQSG,206,175,156,1400,196,151,117,82.4,136,94.5,76.9,280
PPSGTDNKAAAGETP,26300,39400,47300,1130,607,5490,522,679,1390,236,239,227
PSGTDNKPATGGAPS,33500,22600,44000,5120,1010,8440,319,1410,1260,469,650,320
